The source of these data is PubChem BioAssay AID1346428 (National Center for Advancing Translational Sciences (NCATS), 2018).

The structures appear in SMILES notation. Among all 48,000 compounds or so, about 1,200 (2.5%) were called active. About 2% were inconclusive and are not listed.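 The calls were made as follows: active = activation of at least 60% and not above a set upper limit (about 1 call in 100 departs from these limits); inconclusive = activation of 40% to 60%, or above that upper limit; inactive = activation under 40%.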 Some of the results follow.

UniProt O75388, sequence (O75388 whole entry, looked up): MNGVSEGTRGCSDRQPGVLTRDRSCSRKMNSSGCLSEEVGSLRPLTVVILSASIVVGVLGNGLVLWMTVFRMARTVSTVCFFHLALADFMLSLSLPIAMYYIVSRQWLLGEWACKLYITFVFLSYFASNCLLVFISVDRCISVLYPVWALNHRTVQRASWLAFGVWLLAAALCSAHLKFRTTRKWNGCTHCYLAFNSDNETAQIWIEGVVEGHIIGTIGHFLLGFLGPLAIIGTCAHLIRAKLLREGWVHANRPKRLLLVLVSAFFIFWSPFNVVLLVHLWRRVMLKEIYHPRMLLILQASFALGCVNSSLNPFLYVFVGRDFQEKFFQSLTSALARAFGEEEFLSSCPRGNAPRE

The target in this test is Probable G-protein coupled receptor 32 (Homo sapiens) (UniProt O75388). The experiment in a line: qHTS for Agonists of Human Resolvin D1 Receptor DRV1. Also: 0% is about no effect. The conditions noted are these: CHO-K1 GPR32 beta-arrestin PathHunter luminescence, 90 min; at 76.9 µM; hits give high values; zero percent set by DMSO-only wells. The method in brief:
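Engineered CHO-K1 line co-expressing GPR32-ProLink and EA-beta-arrestin. Compound treatment lasted 90 min at 37 °C. Luminescence was recorded after 1 h with substrate at ambient temperature, relative to DMSO basal wells.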
For the molecule `CC(C)c1ccccc1NC(=O)Cn1cnc2c1c(=O)n(C)c(=O)n2C`, the activation was inactive: 7.3%.
Take `CCCNC(=O)c1c(NC(=O)c2ccccc2)sc2c1CCC(C(C)(C)C)C2` (stereo not given): the activation is inactive: 8.84%.
For `O=C(Cn1c(=O)n(Cc2ccc(C(=O)NCc3ccc4c(c3)OCO4)cc2)c(=O)c2ccccc21)Nc1ccccc1F` the value was inactive: 5.57%.
As to `O=C(CCS(=O)(=O)c1cc(Br)cc2c1N(C(=O)C1CC1)CC2)N1CCN(c2cccc(C(F)(F)F)c2)CC1`, the activation is inactive: -18.6%.
Take `Cc1ccc(CSc2nc3ccncc3n2Cc2nc(-c3ccccc3C)oc2C)cc1`: the activation is inactive: 11.5%.
Turning to `CCCc1nnc(NC(=O)C(CC)Sc2nnc3c4ccccc4n(C)c3n2)s1` (stereo not given), the activation is inactive: -11.2%.
For the molecule `COc1ccc(CNC(=O)c2sc3nc4n(c(=O)c3c2C)CCC4)cc1`, the activation is inactive: -9.54%.
On to `COc1ccc(-n2ccn(CC(=O)Nc3ccc(C)cc3C)c(=O)c2=O)cc1`, for which the activation is inactive: -9.4%.
Consider `CC(C)N(Cc1nc(-c2ccc(Cl)cc2)no1)C(=O)c1ccco1`, for which the activation is inactive: 17.8%.
Turning to `CC(C)(C)c1ccc(C(=O)NC(Cc2c[nH]c3ccccc23)C(=O)OCC(=O)c2ccc(Br)cc2)cc1` (stereo not given), the activation is inactive: -15.6%.
Then `COc1ccc2c(c1)c1c(c(=O)n(-c3cccc(C)c3)c(=O)n1CC(=O)NCc1ccc(C)cc1)n2C`, with inactive: 9.64%.
Consider `Cc1ccc(OCC(=O)Nc2ccc3nn(-c4ccc(C)cc4)nc3c2)cc1`, for which the activation was inactive: 1.16%.
For the molecule `COC(=O)c1cc(C)nc2c1c(=O)nc(SCc1ccccc1Cl)n2C1CC1`, the activation is inactive: -14.8%.
`Cc1cccc(CCNC(=O)CCS(=O)(=O)c2cc3c(cc2C)NC(=O)CO3)c1`: the activation was inactive: 4.75%.
For the molecule `Cc1nn(CCC(=O)Nc2ccccc2Br)c(=O)c2nn(-c3ccccc3)c(C)c12`, the activation is inactive: -5.19%.
For `CCc1nnc2c(Nc3ccccc3Br)nc3ccccc3n12` the value was inactive: 5.11%; for `COc1ccccc1N1CCN(C(=O)CNS(=O)(=O)c2ccc(Br)s2)CC1`, inactive: 45.1%; for `CCc1cccc(NS(=O)(=O)c2ccc3c(c2)N(CC(=O)OC)C(=O)CS3)c1`, inactive: -1.41%.
As for `Cn1cnc(S(=O)(=O)N2CCC(C(=O)Nc3ccc(Cl)c(C(F)(F)F)c3)CC2)c1`, the activation is inactive: 33.2%.
For `CCOC(=O)N1CCC2(CC1)OC(=O)C(C)=C2C(=O)NCc1ccccc1OC`, the activation was inactive: -15.5%.
Then `O=C(CSc1nc(=O)[nH]c2c1CCCC2)NCc1ccc(F)cc1`, with inactive: -0.969%; and `CCOC(=O)c1c(C)c(-c2ccccc2)n(CC(=O)NCCc2cccc(C)c2)c1C`, with inactive: -10.7%.
As for `COCCn1c(C)cc(O)c(C(c2ccc(F)cc2)N2CCN(c3ccccc3)CC2)c1=O` (stereo not given), the activation was inactive: -2.38%.
Then `COc1ccc(CC(=O)NCCS(=O)(=O)N2CCN(c3ccc(F)cc3)CC2)cc1OC`, with inactive: -2.65%.
For the molecule `CCNC(=O)c1c(NC(=O)c2nc(S(=O)(=O)CC)ncc2Cl)sc2c1CCCC2`, the activation is inactive: -2.13%.
Then `COc1ccccc1NC(=O)c1sc2nc3c(cc2c1N)CN(Cc1ccccc1)CC3`, with inactive: -22.9%.
With `N[C@@H](CC(=O)O)C(=O)O`, the activation is inactive: 15.5%.
For `N#Cc1ccccc1Cn1cnc2nc3c(cc2c1=O)CCCC3`, the activation is inactive: -4.36%.
With `CCc1nc(C)cn1S(=O)(=O)c1ccc(Cl)c(Cl)c1OC`, the activation was inactive: 18.8%.
Then `Cc1cccc(C(=O)NC2=NC(c3ccc(Cl)cc3)CC(=O)N2)c1` (stereo not given), with inactive: -1.82%.
`Cc1nnc2c(N3CCN(c4ccccc4F)CC3)nc3ccc(C(=O)c4ccccc4)cc3n12`: the activation was inactive: -3.03%.
For `CCc1cc(=O)[nH]c(SCc2nc(-c3ccccc3)no2)n1` the value was inactive: 8.38%; for `Cc1cccc(CC(=O)NCc2nc3cccnc3n2Cc2ccc(F)cc2)c1`, inactive: -11.8%.
Then `CCCOc1ccc(C(=O)Nc2ccc(NC(=O)c3ccccc3)c(C)c2)cc1`, with inactive: -7.48%.
Then `O=C(Cn1cnc2c(nc3n2CCCCC3)c1=O)Nc1ccc(F)c(Cl)c1`, with inactive: -5.15%; and `CS(=O)(=O)Nc1ccccc1C(=O)OCc1cc(=O)n2nc(C3CCCCC3)sc2n1`, with inactive: -19.8%.
As to `Cc1cc(F)ccc1NC(=O)CS(=O)(=O)c1cccc2nsnc12`, the activation was inactive: -19%.
Turning to `Cc1ccccc1Nc1c(-c2ccccc2)nc2cccc(C)n12`, the activation is inactive: -19.8%.
With `CCOC(=O)C1CCC(CN(Cc2ccc(OC)cc2)S(=O)(=O)c2ccc(F)c(C(=O)Nc3c(C)cccc3C)c2)CC1` (stereo not given), the activation was inactive: -8.27%.
For `O=C(Nc1cccc(Cl)c1)C1CCCN(c2ncnc3c2nc2n3CCCCC2)C1` (stereo not given), the activation was active: 67.2%.
Then `COc1ccc(N2CC(NC(=O)C3CCCC3)CC2=O)cc1OC` (stereo not given), with inactive: 1.33%.
Then `CCOC(=O)C(C#N)=C(c1ccccc1)c1ccccc1`, with inactive: 4.23%.
As for `CSc1ccc(CCNC(=O)c2cc3cc(S(=O)(=O)N4CCCCC4)ccc3n2C)cc1`, the activation is inactive: -9.91%.
Regarding `COc1ccc(CNc2nc(SCc3ccccc3Cl)nc3ccccc23)cc1`, the activation is inactive: -12.6%.
Then `CCN(C(=O)c1cn(CC(C)C)c(=O)c2cc(OC)c(OC)cc12)c1cc(OC)ccc1OC`, with inactive: -8.66%.
For `CC(C)c1ccc(NC(=O)Cn2nnc(C(=O)NCc3ccc(Cl)cc3)c2N)cc1`, the activation is inactive: -1.29%.
Then `COc1ccc2c(c1)sc1ncc(C(=O)NCc3cccc(C)c3)c(=O)n12`, with inactive: -9.96%.
As for `COc1ccc(CCNC(=O)c2cn(C)c3ccc(S(=O)(=O)N(C)C)cc3c2=O)cc1OC`, the activation was inactive: -7.96%.
Then `CC1CCCN(S(=O)(=O)c2cc3c4c(c2)CC(=O)N4CCC3)C1` (stereo not given), with inactive: -37.4%; and `Cn1nc(C(=O)N2CCN(c3ccc(F)cc3)CC2)c2c1-c1ccccc1SC2`, with inactive: -10.7%; and `CCc1ccc(C(=O)c2cn(CC(=O)Nc3cc(F)ccc3F)c3nc(C)ccc3c2=O)cc1`, with inactive: 27.7%.
For `CCCn1cnc2cc(NCc3ccc(OC)cc3OC)ccc21` the value was inactive: -30.4%; for `CCOc1ccc(CC(=O)N2CCc3cc(OC)c(OC)cc3C2COc2ccc3c(C)cc(=O)oc3c2)cc1` (stereo not given), inactive: -11%.
Then `Oc1ccc(NCc2ccc(OCc3ccccc3)cc2)cc1`, with inactive: -16.6%; and `Cc1cc(=O)oc2cc(OCC(=O)Nc3ccc(O)c(C(=O)O)c3)ccc12`, with inactive: -0.238%.
As to `CCCOc1ccc(NC(=O)C(=O)NCCCN2CCOCC2)cc1`, the activation is inactive: 20.9%.
Regarding `CCCCCn1c(=O)[nH]c2cc(C(=O)NCc3ccccc3)ccc2c1=O`, the activation was inactive: -0.53%.
On to `CC(C)CNS(=O)(=O)c1ccc(N2CCCCS2(=O)=O)cc1`, for which the activation is inactive: 6.95%.
As for `CCOc1ccc(NC(=O)CCc2c(C)nc3cc(-c4ccc(Cl)cc4)nn3c2C)cc1`, the activation is inactive: -12.6%.
For `Cc1ccc(NC(=O)c2sc(-n3nc(C)c(Cc4ccc5c(c4)OCO5)c3C)nc2C)cc1Cl` the value was inactive: 4.27%.
Then `Cc1cccc(-c2noc(CNC(=O)c3ccccc3Br)n2)c1`, with inactive: -2.7%; and `Cc1cccc(Cn2c(SCc3ccc(C(=O)NC4CCCC4)cc3)nc3ccncc32)c1`, with inactive: -11.9%; and `COc1ccc(CNC(=O)Cc2c(C)c3c(cc(C)c4c(C)c(C)oc43)oc2=O)cc1OC`, with inactive: -8.2%.
On to `COc1ccc(CC(=O)Nc2ccc3nc(N4CCCCC4)cc(C)c3c2)cc1`, for which the activation was inactive: -9.37%.
Take `CC1CCN(S(=O)(=O)c2ccc3c(c2)oc(=O)n3CC(=O)O)CC1`: the activation is inactive: -7.92%.
Then `Cc1cccc(NC(=O)C2CCN(c3cnccn3)CC2)c1`, with inactive: 27.4%; and `COc1ccc(Cn2c(=O)c3ccccc3n3c(-c4cccc(OC)c4OC)nnc23)cc1`, with inactive: 35.9%.
For `CCOC(=O)c1c(NC(C)=O)c2c3c(sc2n1Cc1nc(-c2ccccc2Cl)oc1C)CCCC3` the value was inactive: -13.8%.
On to `Cc1ccc(CNC(=O)c2cc3c(s2)-c2c(C)cccc2OC3)cc1`, for which the activation is inactive: 9.5%.
Turning to `COc1ccc2c(c1)c1c(c(=O)n(Cc3ccccc3)c(=O)n1CC(=O)NCc1ccccc1)n2C`, the activation was inactive: 6.75%.
As to `Cc1cc(C)cc(NC(=O)N2CCN(c3cc(-c4noc(C)n4)ccc3C)CC2)c1`, the activation was inactive: -4.41%.
For `Cc1ncc([N+](=O)[O-])n1C` the value was inactive: -8.02%.
Then `CCOCCCNC(=O)c1ccc(-n2c(-c3ccccc3)cc3c2CCCCC3)cc1`, with inactive: -17.8%; and `CN(C)CCN(Cc1ccco1)C(=O)c1oc2ccccc2c1NC(=O)c1cccc(F)c1`, with inactive: 1.92%.
For the molecule `CCC(=O)N1CCc2cc(Br)cc(S(=O)(=O)CCC(=O)Nc3cccc(C)c3C)c21`, the activation is inactive: -5.31%.
Regarding `COc1ccc(CNCc2c(C(=O)O)n(Cc3ccc(F)cc3)c3cc(C)ccc23)cc1OC`, the activation is inactive: 14.9%.
For `CNc1ncnc2c1ncn2[C@@H]1O[C@H](CO)[C@@H](O)[C@H]1O`, the activation was inactive: -7.92%.
On to `CCOc1ncc(F)c(=O)[nH]1`, for which the activation is inactive: 19.3%.
Then `COc1ccccc1NC(=O)C1=C(C)Nc2ncnn2C1c1cccn1C` (stereo not given), with inactive: 11%; and `CCOc1ccc(CN2C(=O)c3ccccc3C2C(=O)NCCc2ccc(OC)c(OC)c2)cc1` (stereo not given), with inactive: -5.58%.
Turning to `COc1ccc(CNC(=O)Cc2c(C)c3cc4c(C)coc4c(C)c3oc2=O)cc1OC`, the activation was inactive: -4.24%.
Then `COc1ccc(Cn2c(CO)cnc2SCc2ccccc2C)cc1`, with inactive: -12.5%; and `CCOC(=O)c1c(S(=O)(=O)N2CCC(C(=O)Nc3ccc(F)cc3F)CC2)c(C)n(C)c1C`, with inactive: 0.848%.
With `COc1cccc(CCc2ccccc2OCC(CN(C)C)OC(=O)CCC(=O)O)c1` (stereo not given), the activation was active: 94.8%.
Then `CC1Cc2cc(S(=O)(=O)CCC(=O)NCc3ccccc3Cl)ccc2N1C(=O)C1CC1` (stereo not given), with inactive: -4.29%.
